Experimental data reported in publication PMC12040169 (PLOS Biology, 2025).
The list shows a part of the results.

Test system: T1, C. trachomatis L2/434/Bu expressing GFP (CTL2-GFP)
T1 construct: L2/434/Bu GFP intracellular growth in HeLa cells
Design: species or system HeLa; C. trachomatis total inclusion area by high-content imaging, normalised to DMSO
Settings: total inclusion area; 28.5 h, 10 µM; inhibitor
In short: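 Imaging read-out: GFP inclusions and Hoechst nuclei captured by high-content imaging after fixation. Inclusion area/number = chlamydial growth; nuclei count = host cell viability. MIC calculated per earlier method.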

SMILES	% of control remaining
COc1cc(Nc2cncc(-c3ccc(O)cc3)n2)c(Cl)cc1C(=O)NCCCN(C)C [CBK122651]	72.7985
Cn1c(=O)c2c(ncn2CC(=O)Nc2ccc3ccccc3c2)n(C)c1=O [CBK133722]	67.9287
O=C1CCCN1CCC(=O)N1CCCC1c1nc2ccccc2[nH]1 (stereo not shown) [CBK283981]	74.15
Fc1ccc(Sc2ccc(C(F)(F)F)cn2)cc1 [CBK115235]	139.255
Cc1cc(CNC(=O)c2cc3ccccc3oc2=O)c2ccccc2n1 [CBK269834]	101.426
O=c1n(C(c2ccccc2)c2ccccc2)ccn1S(=O)(=O)c1ccc2ccccc2c1 [CBK106623]	80.1876
O=C(C1=C(O)C(=O)N(CCN2CCOCC2)C1c1cccc(Br)c1)c1ccco1 (stereo not shown) [CBK264490]	113.596
Cc1nc(C)n(CC(=O)NCCCc2ccc(Cl)cc2)n1 [CBK281559]	79.7488
c1ccc(CN(Cc2ccccc2)Cn2c3ccccc3c3ccccc32)cc1 [CBK263575]	103.661
O=C(O)C1CSC(c2cccc(Cl)c2Cl)N1 (stereo not shown) [CBK077526]	80.0242
Nc1ncnc2nc(-c3ccncc3)nn12 [CBK288550]	118.921
CCC(=O)N1CCN(CCCC(=O)c2ccc(F)cc2)CC1 [CBK025017C]	95.2918
O=C(CN1CCN(C(=O)C2COc3ccccc3O2)CC1)Nc1ccc2c(c1)OCCO2 (stereo not shown) [CBK074777]	86.8392
O=C1NC2(CCN(C(=O)Cc3ccsc3)CC2)Nc2ccccc21 [CBK283963]	82.8105
Cc1cc(COc2nccnc2N2CCN(CC(N)=O)CC2)no1 [CBK084192]	93.0683
COCC(=O)NC1CC(C)(C)Cc2c1cnn2-c1ccc(C)cc1 (stereo not shown) [CBK282866]	74.1772
O=C(CN1CCN(C/C=C/c2ccccc2)CC1)Nc1ccc(C2CCCCC2)cc1 [CBK074497]	82.503
CN1CCC2(CC1)SC(=O)Nc1ccc(Br)cc12 [CBK017821B]	90.7429
Clc1ccc(CNCc2cccnc2)cc1 [CBK086257C]	93.4362
COc1ccc2[nH]c3c(c2c1)CCNC31CCCN(Cc2ccc(OC(F)(F)F)cc2)C1 (stereo not shown) [CBK039387]	81.0984
CS(=O)(=O)c1nc(-c2ccccc2)ns1 [CBK017338]	43.5288
Cc1ccc(C2(C(=O)NCCn3ccnc3C)CCOCC2)cc1 [CBK281858]	104.352
O=C(O)C1(NCc2ccc(F)cc2)CCCCC1 [CBK287270]	129.95
Cc1nn(-c2ccccc2)c(O)c1/C=N/c1ccccc1Sc1c(C)n[nH]c1C [CBK262048]	81.5331
O=S(=O)(Nc1ncc(Br)c2cccnc12)c1cccc(C(F)(F)F)c1 [CBK073884]	83.0051
O=C(NCc1ccc(OC2CCNCC2)cc1)c1cnccn1 [CBK036359T]	123.13

SMILES	% of control remaining
Cc1cc(C)n(CC(=O)NCC(c2c(F)cccc2F)N(C)C)n1 (stereo not shown) [CBK305510]	38.0816
O=C(Cc1ccc(F)cc1)N1C2CCC1CC(O)(c1ccco1)C2 (stereo not shown) [CBK284033]	97.3873
O[C@@H]1C[C@@H](c2nc(-c3ccc(F)cc3)no2)N(Cc2ncc[nH]2)C1 [CBK288849]	110.79
O=C1CCC(C(=O)N2CC3(CCCC3)c3c(F)cccc32)CN1 (stereo not shown) [CBK304914]	33.3169
O=C(NCC1(CCO)CCOC1)c1c[nH]nc1-c1cc2ccccc2o1 (stereo not shown) [CBK305492]	99.103
CC(=O)c1ccc(NC(=O)N(C)c2c(C)nc3ccc(C(=O)N4CCN(C(=O)c5ccco5)CC4)cn23)cc1 [CBK146930]	98.3221
Cc1ccc(-c2csc(NC(=O)c3ccc(F)cc3)n2)cc1 [CBK095107]	92.9876
CN(CCc1ccncc1)C(=O)c1[nH]nc2c1CCCCC2 [CBK283151]	73.8069
OC(CN[C@H]1CC[C@](O)(c2ccc(Cl)cc2)CC1)c1ccccc1 (stereo partly shown) [CBK016206]	31.487
O=C(/C=C/c1ccc([N+](=O)[O-])cc1)c1ccc(O)c(O)c1 [CBK265028]	71.2303
O=C(Nc1sc2c(c1C(=O)O)CCC2)c1cccs1 [CBK152437]	57.3062
CN(C)[C@H]1CCCC[C@@H]1n1c(-c2ccc(Cl)c(Cl)c2)n[nH]c1=O [CBK010566]	70.705
Cc1ccccc1Nc1nc(N)nc(CN2CC(C)OC(C)C2)n1 (stereo not shown) [CBK305856]	70.8327
COc1ccc(S(=O)(=O)N2CCCCC2C(=O)O)cc1 (stereo not shown) [CBK077424]	114.348
N#Cc1c(C(F)(F)F)cc(-c2ccccc2)nc1SCCC(=O)Nc1ccccc1O [CBK268191]	77.4888
CC(Cn1cncn1)C(=O)N1CCC(CCc2ccccc2F)CC1 (stereo not shown) [CBK281529]	89.0369
Nc1nc(OCCn2cccc2)cnc1-c1ccsc1 [CBK145162]	96.2195
O=C(CCn1c2ccccc2c2ccccc21)NNC(=S)Nc1ccccc1 [CBK262106]	86.2186
Cc1ccc(OCC(=O)Nc2cc(Cl)ccc2O)cc1C [CBK265968]	122.764
O=C(c1ccccc1)c1ccc(OCC(O)CN2CCN(c3ccccn3)CC2)cc1 (stereo not shown) [CBK266513]	102.598
CN(Cc1ccccc1)c1nccnc1-c1ccccc1F [CBK037410]	72.8716
C=CCNC(=O)N[C@H]1[C@H](O)[C@@H](Oc2ccccc2)[C@@H]2OC[C@H]1O2 [CBK288812]	100.196
O=C1NCCCC12CCN(Cc1ccc3ncccc3c1)CC2 [CBK284825]	89.8251
CCn1ccc(C(=O)NC(c2cncc(OC)c2)[C@H]2C[C@@H](O)C2)cc1=O (stereo partly shown) [CBK307696]	75.3754
Cc1ccc2nsnc2c1NC(=O)COc1ccc([N+](=O)[O-])cc1 [CBK033705]	118.658
O=C(Nc1ncnc2c1nc(OCc1ccccc1)n2C1CC(O)C(CO)O1)c1ccccc1 (stereo not shown) [CBK201220]	96.6588
